# Reference: the supplement of paper PMC8728848
# The other results are listed elsewhere or left out.
# Assays:
# Test in all cases: glycan array binding signal (z-score within array); higher = stronger binding
# Conditions in all cases: glycan notation: IUPAC condensed, linker removed
# [1] = target: Neu5Ac(a2-3)Gal(b1-4)[Fuc(a1-3)]GlcNAc(b1-3)GalNAc
# Summary of the method: (§1)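 Columns mapping to the same glycan were averaged after glycan names were converted to IUPAC-condensed notation. The data come from 3228 arrays in the Consortium for Functional Glycomics database, limited to those with an available protein sequence. Binding is reported as a within-array Z-score averaged across arrays of one protein sequence and across linkers.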
# [2] = target: Neu5Ac(a2-3)Gal(b1-4)[Fuc(a1-3)]GlcNAc(b1-6)[Gal(b1-3)]GalNAc
# Summary of the method: as §1
# [3] = target: Neu5Ac(a2-3)Gal(b1-4)[Fuc(a1-3)]GlcNAc(b1-6)[Neu5Ac(a2-3)Gal(b1-3)]GalNAc
# Summary of the method: as §1
# [4] = target: Neu5Ac(a2-3)Gal(b1-4)[Fuc(a1-3)]GlcNAc6S
# Summary of the method: as §1
# [5] = target: Neu5Ac(a2-3)Gal6S(b1-4)GlcNAc
# Summary of the method: as §1
# [6] = target: Neu5Ac(a2-3)Gal6S(b1-4)[Fuc(a1-3)]GlcNAc
# Summary of the method: as §1
# [7] = target: Neu5Ac(a2-3)GalNAc
# Summary of the method: as §1
# [8] = target: Neu5Ac(a2-3)GalNAc(b1-4)GlcNAc
# Summary of the method: as §1
# [9] = target: Neu5Ac(a2-3)[GalNAc(b1-4)]Gal(b1-4)Glc
# Summary of the method: as §1
# [10] = target: Neu5Ac(a2-3)[GalNAc(b1-4)]Gal(b1-4)GlcNAc
# Summary of the method: as §1
# [11] = target: Neu5Ac(a2-3)[GalNAc(b1-4)]Gal(b1-4)GlcNAc(b1-3)GalNAc
# Summary of the method: as §1
# [12] = target: Neu5Ac(a2-3)[Neu5Ac(a2-6)]GalNAc
# Summary of the method: as §1
# [13] = target: Neu5Ac(a2-6)Gal
# Summary of the method: as §1
# [14] = target: Neu5Ac(a2-6)Gal(b1-4)Glc
# Summary of the method: as §1
# [15] = target: Neu5Ac(a2-6)Gal(b1-4)GlcNAc
# Summary of the method: as §1
# [16] = target: Neu5Ac(a2-6)Gal(b1-4)GlcNAc(b1-2)Man(a1-3)Man(b1-4)GlcNAc(b1-4)GlcNAc
# Summary of the method: as §1
# [17] = target: Neu5Ac(a2-6)Gal(b1-4)GlcNAc(b1-2)Man(a1-3)[Gal(b1-4)GlcNAc(b1-2)Man(a1-6)]Man(b1-4)GlcNAc(b1-4)GlcNAc
# Summary of the method: as §1
# [18] = target: Neu5Ac(a2-6)Gal(b1-4)GlcNAc(b1-2)Man(a1-3)[GlcNAc(b1-2)Man(a1-6)]Man(b1-4)GlcNAc(b1-4)GlcNAc
# Summary of the method: as §1
# [19] = target: Neu5Ac(a2-6)Gal(b1-4)GlcNAc(b1-2)Man(a1-3)[GlcNAc(b1-2)Man(b1-4)GlcNAc(b1-2)Man(a1-6)]Man(b1-4)GlcNAc(b1-4)GlcNAc
# Summary of the method: as §1
# [20] = target: Neu5Ac(a2-6)Gal(b1-4)GlcNAc(b1-2)Man(a1-3)[Man(a1-6)]Man(b1-4)GlcNAc(b1-4)GlcNAc
# Summary of the method: as §1
# [21] = target: Neu5Ac(a2-6)Gal(b1-4)GlcNAc(b1-2)Man(a1-3)[Neu5Ac(a2-6)Gal(b1-4)GlcNAc(b1-2)Man(a1-6)]Man(b1-4)GlcNAc(b1-4)GlcNAc
# Summary of the method: as §1
# [22] = target: Neu5Ac(a2-6)Gal(b1-4)GlcNAc(b1-2)Man(a1-6)Man(b1-4)GlcNAc(b1-4)GlcNAc
# Summary of the method: as §1
# [23] = target: Neu5Ac(a2-6)Gal(b1-4)GlcNAc(b1-2)Man(a1-6)[Gal(b1-4)GlcNAc(b1-2)Man(a1-3)]Man(b1-4)GlcNAc(b1-4)GlcNAc
# Summary of the method: as §1
# [24] = target: Neu5Ac(a2-6)Gal(b1-4)GlcNAc(b1-2)Man(a1-6)[GlcNAc(b1-2)Man(a1-3)]Man(b1-4)GlcNAc(b1-4)GlcNAc
# Summary of the method: as §1
# [25] = target: Neu5Ac(a2-6)Gal(b1-4)GlcNAc(b1-2)Man(a1-6)[Man(a1-3)]Man(b1-4)GlcNAc(b1-4)GlcNAc
# Summary of the method: as §1
# [26] = target: Neu5Ac(a2-6)Gal(b1-4)GlcNAc(b1-3)Gal(b1-3)GlcNAc
# Summary of the method: as §1
# [27] = target: Neu5Ac(a2-6)Gal(b1-4)GlcNAc(b1-3)Gal(b1-4)GlcNAc
# Summary of the method: as §1
# [28] = target: Neu5Ac(a2-6)Gal(b1-4)GlcNAc(b1-3)Gal(b1-4)GlcNAc(b1-3)Gal(b1-4)GlcNAc
# Summary of the method: as §1
# [29] = target: Neu5Ac(a2-6)Gal(b1-4)GlcNAc(b1-3)Gal(b1-4)[Fuc(a1-3)]GlcNAc(b1-3)Gal(b1-4)[Fuc(a1-3)]GlcNAc
# Summary of the method: as §1
# [30] = target: Neu5Ac(a2-6)Gal(b1-4)GlcNAc(b1-3)GalNAc
# Summary of the method: as §1
# [31] = target: Neu5Ac(a2-6)Gal(b1-4)GlcNAc6S
# Summary of the method: as §1
# [32] = target: Neu5Ac(a2-6)GalNAc
# Summary of the method: as §1
# [33] = target: Neu5Ac(a2-6)GalNAc(b1-4)GlcNAc
# Summary of the method: as §1
# [34] = target: Neu5Ac(a2-6)GlcNAc(b1-4)GlcNAc
# Summary of the method: as §1
# [35] = target: Neu5Ac(a2-6)GlcNAc(b1-4)GlcNAc(b1-4)GlcNAc
# Summary of the method: as §1
# [36] = target: Neu5Ac(a2-8)Neu5Ac
# Summary of the method: as §1
# [37] = target: Neu5Ac(a2-8)Neu5Ac(a2-3)Gal(b1-4)Glc
# Summary of the method: as §1
# [38] = target: Neu5Ac(a2-8)Neu5Ac(a2-3)[GalNAc(b1-4)]Gal(b1-4)Glc
# Summary of the method: as §1
# [39] = target: Neu5Ac(a2-8)Neu5Ac(a2-8)Neu5Ac
# Summary of the method: as §1
# [40] = target: Neu5Ac(a2-8)Neu5Ac(a2-8)Neu5Ac(a2-3)Gal(b1-4)Glc
# Summary of the method: as §1
# [41] = target: Neu5Ac(a2-8)Neu5Ac(a2-8)Neu5Ac(a2-3)[GalNAc(b1-4)]Gal(b1-4)Glc
# Summary of the method: as §1
# [42] = target: Neu5Ac(a2-8)Neu5Ac(a2-8)Neu5Ac(a2-8)Neu5Ac(a2-3)[GalNAc(b1-4)]Gal(b1-4)Glc
# Summary of the method: as §1
# [43] = target: Neu5Ac(b2-6)Gal(b1-4)GlcNAc
# Summary of the method: as §1
# [44] = target: Neu5Ac(b2-6)GalNAc
# Summary of the method: as §1
# [45] = target: Neu5Ac9Ac(a2-3)Gal(b1-3)GlcNAc
# Summary of the method: as §1
# [46] = target: Neu5Ac9Ac(a2-3)Gal(b1-4)GlcNAc
# Summary of the method: as §1
# [47] = target: Neu5Ac9Ac(a2-6)Gal(b1-4)GlcNAc
# Summary of the method: as §1
# [48] = target: Neu5Gc(a2-3)Gal(b1-3)GlcNAc
# Summary of the method: as §1
# [49] = target: Neu5Gc(a2-3)Gal(b1-3)[Fuc(a1-4)]GlcNAc
# Summary of the method: as §1
# [50] = target: Neu5Gc(a2-3)Gal(b1-4)Glc
# Summary of the method: as §1
# [51] = target: Neu5Gc(a2-3)Gal(b1-4)GlcNAc
# Summary of the method: as §1
# [52] = target: Neu5Gc(a2-3)Gal(b1-4)[Fuc(a1-3)]GlcNAc
# Summary of the method: as §1
# [53] = target: Neu5Gc(a2-6)Gal(b1-4)GlcNAc
# Summary of the method: as §1
# [54] = target: Neu5Gc(a2-6)GalNAc
# Summary of the method: as §1
# [55] = target: Neu5Gc(b2-6)Gal(b1-4)GlcNAc
# Summary of the method: as §1
binder,measurement,setting,value
"Pp2-A2 (Arabidopsis thaliana), Q07098 (protein) MPSNGDLDRQIEQLMECKPLSEADVRTLCDQARAILVEEYNVQPVKCPVTVCGDIHGQFYDLIELFRIGGNAPDTNYLFMGDYVDRGYYSVETVSLLVALKVRYRDRLTILRGNHESRQITQVYGFYDECLRKYGNANVWKYFTDLFDYLPLTALIESQVFCLHGGLSPSLDTLDNIRSLDRIQEVPHEGPMCDLLWSDPDDRCGWGISPRGAGYTFGQDIAAQFNHNNGLSLISRAHQLVMEGFNWCQDKNVVTVFSAPNYCYRCGNMAAILEIGENMEQNFLQFDPAPRQVEPDTTRKTPDYFL",glycan array binding signal (z-score),[1],4.64
same,glycan array binding signal (z-score),[2],1.98
same,glycan array binding signal (z-score),[3],1.98
same,glycan array binding signal (z-score),[4],-0.315
same,glycan array binding signal (z-score),[5],0.103
same,glycan array binding signal (z-score),[6],0.82
same,glycan array binding signal (z-score),[7],-0.344
same,glycan array binding signal (z-score),[8],-0.716
same,glycan array binding signal (z-score),[9],-0.213
same,glycan array binding signal (z-score),[10],-0.215
same,glycan array binding signal (z-score),[11],0.827
same,glycan array binding signal (z-score),[12],-0.272
same,glycan array binding signal (z-score),[13],-0.338
same,glycan array binding signal (z-score),[14],-0.148
same,glycan array binding signal (z-score),[15],-0.266
same,glycan array binding signal (z-score),[16],-0.603
same,glycan array binding signal (z-score),[17],-0.447
same,glycan array binding signal (z-score),[18],-0.55
same,glycan array binding signal (z-score),[19],-0.553
same,glycan array binding signal (z-score),[20],-0.41
same,glycan array binding signal (z-score),[21],-0.571
same,glycan array binding signal (z-score),[22],-0.465
same,glycan array binding signal (z-score),[23],-0.588
same,glycan array binding signal (z-score),[24],-0.642
same,glycan array binding signal (z-score),[25],-0.69
same,glycan array binding signal (z-score),[26],0.016
same,glycan array binding signal (z-score),[27],-0.011
same,glycan array binding signal (z-score),[28],-0.081
same,glycan array binding signal (z-score),[29],0.021
same,glycan array binding signal (z-score),[30],0.4
same,glycan array binding signal (z-score),[31],1.03
same,glycan array binding signal (z-score),[32],-0.052
same,glycan array binding signal (z-score),[33],-0.57
same,glycan array binding signal (z-score),[34],-0.475
same,glycan array binding signal (z-score),[35],-0.102
same,glycan array binding signal (z-score),[36],0.344
same,glycan array binding signal (z-score),[37],-0.442
same,glycan array binding signal (z-score),[38],-0.197
same,glycan array binding signal (z-score),[39],-0.23
same,glycan array binding signal (z-score),[40],-0.234
same,glycan array binding signal (z-score),[41],0.265
same,glycan array binding signal (z-score),[42],-0.215
same,glycan array binding signal (z-score),[43],0.004
same,glycan array binding signal (z-score),[44],0.465
same,glycan array binding signal (z-score),[45],-0.272
same,glycan array binding signal (z-score),[46],-0.605
same,glycan array binding signal (z-score),[47],-0.859
same,glycan array binding signal (z-score),[48],-0.253
same,glycan array binding signal (z-score),[49],-0.001
same,glycan array binding signal (z-score),[50],-0.148
same,glycan array binding signal (z-score),[51],-0.053
same,glycan array binding signal (z-score),[52],0.068
same,glycan array binding signal (z-score),[53],-0.534
same,glycan array binding signal (z-score),[54],-0.235
same,glycan array binding signal (z-score),[55],0.017
